{
  "source": "PubChem BioAssay AID493208",
  "about": "(National Center for Advancing Translational Sciences (NCATS), 2011)",
  "note": "Out of some 44,000 compounds screened, about 340 (0.77%) were called active. Not shown: some 5% with an inconclusive outcome. Calls follow the shape of the dose curve; as a rule, active = well fitted inhibition curve with a large enough effect; inconclusive = small, poorly fitted or top-dose-only effect; inactive = flat fitted curve, though single readings scatter. This is one part of the list.",
  "data": [
    {"experiment": "Acumen qHTS Assay for Inhibitors of the mTORC1 Signaling Pathway in MEF (Tsc2-/-, p53-/-) Cells: Sytravon;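 also: plate controls were DMSO for no effect and rapamycin for full effect; nearly all actives have a fitted effect of over 50% in size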", "details": "phospho-rpS6 immunofluorescence/PI, 24 h; series mostly up to 38.3 µM; activity change, negative = inhibition: at the top concentration", "in_short": "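Immunofluorescence of rpS6 phosphorylation in Tsc2-/-, p53-/- MEFs after 24 h compound exposure, normalized to propidium iodide signal. Activity is expressed as % positive cells, thresholded with 7.5 nM rapamycin.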", "values": [
      {"smiles": "CCN(CC)CCCNC(=O)c1ccc2nc(N3CCCCC3)sc2c1", "activity change, negative = inhibition": "inactive: -16.8%"},
      {"smiles": "CCNC(=O)c1ccc2nc(CCc3ccccc3)oc2c1", "activity change, negative = inhibition": "inactive: -6.68%"},
      {"smiles": "COc1ccc(CCNC(=O)c2cc(C)nc3c2c(C)nn3-c2ccc(C)cc2)cc1OC", "activity change, negative = inhibition": "inactive: -3.74%"},
      {"smiles": "Cc1n[nH]c(C)c1S(=O)(=O)N1CCCC(C(=O)Nc2ccc(Br)cc2)C1", "note": "(stereo unspecified)", "activity change, negative = inhibition": "inactive: -7.11%"},
      {"smiles": "Cc1cc(Nc2ccccc2C)nc(-n2nc(C)cc2C)n1", "activity change, negative = inhibition": "inactive: -2.65%"},
      {"smiles": "CCCN(C(=O)c1cn(C)c(=O)c2ccccc12)c1ccccc1C", "activity change, negative = inhibition": "inactive: -1.46%"},
      {"smiles": "O=C(CN1CCSc2ccccc21)NCc1ccccc1F", "activity change, negative = inhibition": "inactive: -0.32%"},
      {"smiles": "CCOc1ccccc1C(=O)N(Cc1cc(OC)c(OC)c(OC)c1)C1CCS(=O)(=O)C1", "note": "(stereo unspecified)", "activity change, negative = inhibition": "inactive: 3.97%"},
      {"smiles": "CCOc1ccccc1CN1CCc2nc(N3CCN(c4ccccc4F)CC3)ncc2C1", "activity change, negative = inhibition": "inactive: 0%"},
      {"smiles": "COc1ccc2nc(N(Cc3cccnc3)C(=O)C3COc4ccccc4O3)sc2c1", "note": "(stereo unspecified)", "activity change, negative = inhibition": "inactive: 0.194%"},
      {"smiles": "CCCOc1ccc(CN(C(=O)c2cc(=O)c3ccc(C)cc3o2)C2CCS(=O)(=O)C2)cc1", "note": "(stereo unspecified)", "activity change, negative = inhibition": "inactive: -9.95%"},
      {"smiles": "COc1ccc(N2CCN(S(=O)(=O)CCNC(=O)C3CC(=O)N(c4ccccc4)C3)CC2)cc1", "note": "(stereo unspecified)", "activity change, negative = inhibition": "inactive: -9.67%"},
      {"smiles": "COc1cc(C)ccc1OCCSc1nc(-c2cccc(C)c2)nc2cc(=O)[nH]n12", "activity change, negative = inhibition": "inactive: -2.59%"},
      {"smiles": "COc1cccc(C(=O)CC2(O)C(=O)Nc3ccc(Cl)cc32)c1", "note": "(stereo unspecified)", "activity change, negative = inhibition": "inactive: -16.6%"},
      {"smiles": "Cc1nc(CC(=O)Nc2cc(Cl)ccc2C)cs1", "activity change, negative = inhibition": "inactive: 3.76%"},
      {"smiles": "COc1ccc(C)cc1NC(=O)COCc1cc(-c2cccs2)on1", "activity change, negative = inhibition": "inactive: 7.46%"},
      {"smiles": "CCOc1ccc(NC(=O)CSc2nc3c(c(=O)[nH]2)CCCC3)cc1", "activity change, negative = inhibition": "inactive: 1.37%"},
      {"smiles": "COc1cc(C2c3c(oc4ccc(F)cc4c3=O)C(=O)N2c2nc(C)c(C)s2)cc(OC)c1OC", "note": "(stereo unspecified)", "activity change, negative = inhibition": "inactive: 2.76%"},
      {"smiles": "O=C(CCS(=O)(=O)c1cc(Br)cc2c1N(C(=O)C1CC1)CC2)N1CCN(c2ccc(F)cc2)CC1", "activity change, negative = inhibition": "inactive: -12%"},
      {"smiles": "Cc1ccc(N(C)C(=O)Cn2cnc3onc(-c4ccc(F)cc4)c3c2=O)cc1C", "activity change, negative = inhibition": "inactive: 2.68%"},
      {"smiles": "Cc1ccc2ncc(C(=O)NCCc3ccc(S(N)(=O)=O)cc3)c(=O)n2c1", "activity change, negative = inhibition": "inactive: 0.357%"},
      {"smiles": "COc1ccc(CCNC(=O)CCCn2c(=O)c3ccccc3n(Cc3ccc(C)cc3)c2=O)cc1OC", "activity change, negative = inhibition": "inactive: 3.1%"},
      {"smiles": "Cc1nn2c(C)c(C(=O)N3CCN(c4ccccc4)CC3)cnc2c1-c1ccccc1", "activity change, negative = inhibition": "inactive: -11.4%"},
      {"smiles": "Cc1ccc(CCNC(=O)c2cc3c(=O)oc4ccccc4c3s2)cc1", "activity change, negative = inhibition": "inactive: -0.674%"},
      {"smiles": "COc1ccccc1OCCn1c(COc2cc(C)ccc2C)nc2ccccc21", "activity change, negative = inhibition": "inactive: -1.15%"},
      {"smiles": "COc1cc(NC(=O)CSc2nc3ccccc3nc2Cc2ccccc2OC)cc(OC)c1", "activity change, negative = inhibition": "inactive: 6.45%"},
      {"smiles": "COc1cccc(CNC(=O)CNS(=O)(=O)c2ccc3nc(C)sc3c2)c1", "activity change, negative = inhibition": "inactive: -0.0917%"},
      {"smiles": "CCOc1ccccc1Nc1sc(C(=O)c2ccccc2)c(N)c1C(=O)NCCc1ccccc1", "activity change, negative = inhibition": "inactive: -1.27%"},
      {"smiles": "CCC(=O)Nc1ccc(C)cc1-c1nc2ccccc2n(CC(=O)Nc2ccccc2Cl)c1=O", "activity change, negative = inhibition": "inactive: -12.7%"},
      {"smiles": "COc1cc(OC)cc(C(=O)Nc2ccc3oc(-c4ccccc4C)nc3c2)c1", "activity change, negative = inhibition": "inactive: 3.03%"},
      {"smiles": "COc1ccc(NC(=O)Cn2c(=O)n(CC3CCCO3)c(=O)c3ccccc32)c(OC)c1", "note": "(stereo unspecified)", "activity change, negative = inhibition": "inactive: 1.92%"},
      {"smiles": "COc1cccc(-c2cc(C(=O)Nc3cc(C)nn3-c3ccccc3)no2)c1", "activity change, negative = inhibition": "inactive: -14.1%"},
      {"smiles": "Cc1ccccc1NC(=O)c1c(C)oc2ccc(O)c(CN3CCCC3)c12", "activity change, negative = inhibition": "inactive: 2.73%"},
      {"smiles": "CC(C)CNc1nc(NC(C)(C)C)nc(Oc2ccc(=O)n(-c3ccccc3)n2)n1", "activity change, negative = inhibition": "inactive: 0.564%"},
      {"smiles": "COc1ccc2c(c1)c1c(c(=O)n(CCc3ccccc3)c(=O)n1Cc1ccccc1)n2C", "activity change, negative = inhibition": "inactive: -0.455%"},
      {"smiles": "O=C(c1cc2ccc3cccnc3c2[nH]1)N1CCN(c2cccc(C(F)(F)F)c2)CC1", "activity change, negative = inhibition": "inactive: -9.44%"},
      {"smiles": "Cc1ccc(NC(=O)c2oc3ccc(S(=O)(=O)N4CCCCC4)cc3c2C)cc1C", "activity change, negative = inhibition": "inactive: 3.27%"},
      {"smiles": "Cc1ccc(C)c2sc(NC(=O)c3ccc(S(=O)(=O)N4CCCC4)cc3)nc12", "activity change, negative = inhibition": "inactive: 3.19%"},
      {"smiles": "CC(=O)N1CCOc2cc(S(=O)(=O)NCc3ccc(C)cc3)c(C)cc21", "activity change, negative = inhibition": "inactive: 4.84%"},
      {"smiles": "Cc1c(CNCc2ccc(OC(C)C)cc2)c(C(=O)O)c(C)n1Cc1ccc(Cl)cc1", "activity change, negative = inhibition": "inactive: -0.225%"},
      {"smiles": "CCN1CCN(CCCNC(=O)c2cc3c(=O)n(CC)c4ccccc4c3s2)CC1", "activity change, negative = inhibition": "inactive: 0.93%"},
      {"smiles": "COc1ccc(N(C(=O)c2ccccc2F)S(=O)(=O)c2ccc3c(c2)n(C)c(=O)n3C)cc1", "activity change, negative = inhibition": "inactive: -3.17%"},
      {"smiles": "CCOc1ccc(CNC(=O)c2ccc3c(c2)nc2n3CCOC2)cc1", "activity change, negative = inhibition": "inactive: 0.305%"},
      {"smiles": "COc1ccc(-c2cc(C(F)(F)F)nc(SCC(=O)N(C)Cc3ccccc3)n2)cc1OC", "activity change, negative = inhibition": "inactive: -5.38%"},
      {"smiles": "CCC(C)(C)NS(=O)(=O)c1cc(-c2cc(C)no2)ccc1C", "activity change, negative = inhibition": "inactive: 2.28%"},
      {"smiles": "CCN1c2ccccc2-c2nc(SCC(=O)Nc3cccc(C(F)(F)F)c3)ncc2S1(=O)=O", "activity change, negative = inhibition": "inactive: -9.21%"},
      {"smiles": "COc1cc(O)ccc1C1CC(=O)Nc2c1c(=O)nc(SCc1ccccc1C)n2C", "note": "(stereo unspecified)", "activity change, negative = inhibition": "inactive: 0.262%"},
      {"smiles": "CCOC(=O)c1cccc(NC(=O)c2cc(S(=O)(=O)N3CCCCCC3)cn2C)c1", "activity change, negative = inhibition": "inactive: 0.44%"},
      {"smiles": "COc1ccc(CNc2oc(-c3ccc(COc4ccc(Cl)cc4)o3)nc2C#N)cc1", "activity change, negative = inhibition": "inactive: 0%"},
      {"smiles": "Cc1ccc(C)c(CN2C(=O)c3ccccc3S(=O)c3ccc(C(=O)N4CCC(C)CC4)cc32)c1", "note": "(stereo unspecified)", "activity change, negative = inhibition": "inactive: 5.49%"},
      {"smiles": "COc1ccc(CNC(=O)c2c(Nc3ccc(OC)cc3OC)sc(C(=O)c3ccc(Cl)cc3)c2N)cc1", "activity change, negative = inhibition": "inactive: -8.43%"},
      {"smiles": "CCOC(=O)CSc1nc2sc3c(c2c(=O)n1Cc1ccccc1)CCC(C(C)(C)C)C3", "note": "(stereo unspecified)", "activity change, negative = inhibition": "inactive: 14.6%"},
      {"smiles": "Cc1ccc(CNC(=O)C2CCC(CNS(=O)(=O)c3ccc4c(c3)CCCC(=O)N4)CC2)cc1", "note": "(stereo unspecified)", "activity change, negative = inhibition": "inactive: 3.54%"},
      {"smiles": "CC(C)OCCCNC(=O)CCCn1c(=O)[nH]c2ccsc2c1=O", "activity change, negative = inhibition": "inactive: 9.04%"},
      {"smiles": "CCOc1ccc(CNC(=O)c2cc(=O)[nH]c3ccc(S(=O)(=O)N4CCCCC4)cc23)cc1", "activity change, negative = inhibition": "inactive: 12.1%"},
      {"smiles": "Cc1cc(C)cc(Nc2cc(C(=O)NCCCN(Cc3ccccc3)C(C)C)c3ccccc3n2)c1", "activity change, negative = inhibition": "inactive: -1.28%"},
      {"smiles": "COc1ccc(CN(C(=O)c2cc3ccccc3oc2=O)C2CCS(=O)(=O)C2)cc1", "note": "(stereo unspecified)", "activity change, negative = inhibition": "inactive: -1.69%"},
      {"smiles": "O=C(Nc1cccc(-c2nc3ccccc3o2)c1)c1cc([N+](=O)[O-])ccc1N1CCOCC1", "activity change, negative = inhibition": "inactive: 2.7%"},
      {"smiles": "Cc1cccc(C)c1OCCSc1nc2ccccc2n1CC(=O)O", "activity change, negative = inhibition": "inactive: 5.82%"},
      {"smiles": "COc1ccc(N2CCN(S(=O)(=O)c3csc(C(N)=O)c3)CC2)cc1", "activity change, negative = inhibition": "inactive: -9.16%"},
      {"smiles": "CCN(Cc1ccccc1)C(=O)Cn1c(=O)n(-c2ccc(F)c(Cl)c2)c(=O)c2sc3ccccc3c21", "activity change, negative = inhibition": "inactive: -17.2%"}
    ]}
  ]
}
